In US10792272B2, “Methods for treatment of Clostridium difficile infections” (priority 2016, dated 2020):

Tested on: Clostridium difficile strain 4118 (BI/NAP1/027)
Settings: stationary-phase CD4118; for decrease in the number of CFUs in 24 h: 4× MIC; for time to eradicate >99.9% of viable cells: 16× MIC (rafoxanide 2 μg/mL, closantel 4 μg/mL, compound 8 1 μg/mL)

| Structure (SMILES) | decrease in the number of CFUs in 24 h [log] | time to eradicate >99.9% of viable cells [h] |
| --- | --- | --- |
| Cc1cc(C(C#N)c2ccc(Cl)cc2)c(Cl)cc1NC(=O)c1cc(I)cc(I)c1O (stereo not drawn) [Closantel] | 2.2 | 24 |
| O=C(Nc1ccc(Oc2ccc(Cl)cc2)cc1)c1cc(Cl)cc(Cl)c1O [Compound 8, 3,5-Dichloro-N-(4-(4-chlorophenoxy)phenyl)-2-hydroxybenzamide] | 2.4 | 24 |
| O=C(Nc1ccc(Oc2ccc(Cl)cc2)c(Cl)c1)c1cc(I)cc(I)c1O [Rafoxanide, rafoxanide, reference compound] | 2.7 | 6 |
